Experimental data taken from article PMC4336329 (PLoS ONE, 2015).
Hit rate of the full screen: of about 310,000 compounds, about 14,000 (4.5%) showed an effect of 50% or more. Effects have a minus sign here. The list shows a part of the results.

Biological target: human ether-à-go-go-related gene (hERG) potassium channel (human, UniProt Q12809)
Assay: primary screen, population patch clamp on CHO cells stably expressing hERG
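Further: peak tail current of the secondary pulse compared with the same well before compound.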

Sequence of human ether-à-go-go-related gene (hERG) potassium channel (Q12809 whole entry, looked up): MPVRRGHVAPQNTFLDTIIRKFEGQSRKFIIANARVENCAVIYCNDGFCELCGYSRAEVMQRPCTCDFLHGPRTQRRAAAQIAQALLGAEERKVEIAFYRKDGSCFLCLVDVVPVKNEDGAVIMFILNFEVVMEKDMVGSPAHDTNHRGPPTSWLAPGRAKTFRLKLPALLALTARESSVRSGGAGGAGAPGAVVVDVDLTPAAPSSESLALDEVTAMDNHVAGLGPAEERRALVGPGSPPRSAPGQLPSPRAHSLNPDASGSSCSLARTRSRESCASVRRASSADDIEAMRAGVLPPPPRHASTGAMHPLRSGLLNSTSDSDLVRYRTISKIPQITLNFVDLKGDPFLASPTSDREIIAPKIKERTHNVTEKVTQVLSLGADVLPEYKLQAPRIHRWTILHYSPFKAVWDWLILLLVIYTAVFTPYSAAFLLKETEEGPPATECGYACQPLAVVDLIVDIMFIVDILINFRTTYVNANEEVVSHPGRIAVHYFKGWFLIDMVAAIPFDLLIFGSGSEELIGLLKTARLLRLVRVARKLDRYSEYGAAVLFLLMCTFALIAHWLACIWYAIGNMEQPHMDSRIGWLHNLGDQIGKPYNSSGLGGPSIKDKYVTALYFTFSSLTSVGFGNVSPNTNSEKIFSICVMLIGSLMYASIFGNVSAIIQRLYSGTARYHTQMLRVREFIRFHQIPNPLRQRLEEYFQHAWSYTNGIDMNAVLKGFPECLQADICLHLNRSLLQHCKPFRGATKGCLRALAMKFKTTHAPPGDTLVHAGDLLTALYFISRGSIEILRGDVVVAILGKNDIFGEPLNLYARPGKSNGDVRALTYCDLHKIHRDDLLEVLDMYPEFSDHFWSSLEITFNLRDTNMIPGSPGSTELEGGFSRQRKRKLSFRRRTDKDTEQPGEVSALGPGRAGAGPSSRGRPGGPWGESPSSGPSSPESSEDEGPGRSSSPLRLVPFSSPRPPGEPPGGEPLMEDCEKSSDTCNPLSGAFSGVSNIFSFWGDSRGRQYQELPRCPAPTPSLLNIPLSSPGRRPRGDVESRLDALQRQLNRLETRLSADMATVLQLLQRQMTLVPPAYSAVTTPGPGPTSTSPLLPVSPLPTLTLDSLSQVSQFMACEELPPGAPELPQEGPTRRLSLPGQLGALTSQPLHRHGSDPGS

| Structure (SMILES) | hERG current change (%, negative = inhibition) at 10uM [%] |
| --- | --- |
| CCOC(=O)c1ccccc1NC(=O)COc1cc(=O)n(CC)c2ccccc12 | 5.47 |
| Cc1ccccc1C(=O)OCC(=O)N(C)c1c(N)n(Cc2ccccc2)c(=O)[nH]c1=O | 18.7 |
| O=C(C1CCN(c2ncnc3c2nc2n3CCCCC2)CC1)N1CCCCC1 | 16 |
| COc1ccc(NC(=O)c2nc[nH]c2C(=O)N(C)Cc2ccccc2)cc1 | -20.2 |
| CC(c1ccccn1)N(CCN(C)C)C(=S)Nc1cccc(F)c1 (stereo not shown) | -6.86 |
| Cc1cc(NC(=O)c2c([N+](=O)[O-])c(C)nn2C)no1 | 14 |
| Cc1cc(Cl)ccc1NC(=O)/C=N/O | 7.89 |
| COC(=O)c1cc(NC(=O)c2cccc(C(F)(F)F)c2)c(=O)oc1C | 16.9 |
| CC(=O)Nc1ccc(SCC(=O)OCC(=O)NC(=O)NCc2ccco2)cc1 | 15.4 |
| O=C(Nc1ccccc1C(=O)N/N=C/c1ccco1)c1ccccc1Cl | 2.55 |
| CCCC1(C(=O)OCC)NC(c2ccc(N(C)C)cc2)C2C(=O)N(c3ccc(OCC)cc3)C(=O)C21 (stereo not shown) | -3.17 |
| Cc1cc(OCc2ccc(C(=O)NN=C3CCCC3)cc2)ccc1Cl | 1.78 |
| CC(=O)N/C(=C\c1ccc(C)o1)C(=O)NCc1ccccc1 | 21.8 |
| N#Cc1c(-c2ccco2)ccn(Cc2ccc(F)cc2)c1=O | -14.2 |
| CC(C)CNS(=O)(=O)c1ccc(CCC(=O)Nc2ccc3c(c2)OCO3)cc1 | 7.54 |
| O=C(CCC(=O)NCCCc1ccccc1)NCCCc1ccccc1 | 8.6 |
| CCc1nnc(NC(=O)CSc2nc3c(c(=O)n2CC)SC(C)C3)s1 (stereo not shown) | 6.7 |
| CN(CCCN1CCCCC1)C(=O)c1cc(COc2ccc(F)cc2F)on1 | -32.6 |
| Cc1ccc(CNC(=O)CSc2ncn[nH]2)cc1 | 22.4 |
| CCCC(=O)Nc1ccc2oc(-c3ccc(OC)c(Br)c3)nc2c1 | 9.42 |
| O=[N+]([O-])c1ccccc1N/N=C/c1c[nH]c2ccccc12 | 16.2 |
| Cc1ccc[n+](C(C)C(=O)c2ccc(Cl)cc2)c1.[Br-] (stereo not shown) | 20.1 |

| Structure (SMILES) | hERG current change (%, negative = inhibition) at 10uM [%] |
| --- | --- |
| CCN(CC)c1ccc(-c2sc(Nc3ccccc3)n[n+]2-c2ccc(F)cc2)cc1.[Cl-] | -71.6 |
| CCOCCCN1CC(C(=O)NCc2ccc3c(c2)OCO3)CC1=O (stereo not shown) | 2.71 |
| Cc1cccc(NC(=O)c2nc[nH]c2C(=O)N[C@@H](CC(C)C)C(=O)OC(C)(C)C)c1 | 18.5 |
| CC(C)n1cnnc1SCC(=O)Nc1ccc(Br)cc1F | 14.6 |
| O=C(CCS(=O)(=O)c1ccccc1)Nc1ccccn1 | 17.1 |
| Cc1[nH]c2ccccc2c1SCC(=O)N1CCCCCC1 | -10 |
| COc1cccc(/C=C/C(=O)OCC(=O)NCCNC(=O)COC(=O)/C=C/c2cccc(OC)c2)c1 | -1.52 |
| Cc1cc(NC(=O)CSc2nc3c(c(=O)n2-c2ccc(Cl)cc2)SCC3)no1 | -8.08 |
| O=c1[nH]c(N/N=C/c2ccccc2)nc2ccccc12 | -14.9 |
| CN(c1ccccc1)S(=O)(=O)c1cccc(NC(=O)COc2cccc([N+](=O)[O-])c2)c1 | -45.4 |
| CCOC(=O)c1c(C)n(C)c2ccc(OC)c(NC(=O)CN3CCC(C(=O)OCC)CC3)c12 | 0.953 |
| CCn1c(C(C)NC(C)=O)nc2ccccc21 (stereo not shown) | -0.288 |
| COC(=O)C1=C(C)N(Cc2ccccc2)C(=NCCc2cccnc2)N[C@H]1c1ccccc1 | -63 |
| C=CCc1ccc(OCCOc2cccc3ccc(C)nc23)c(OC)c1.O=C(O)C(=O)O | -6.6 |
| O=C(OCc1ccc(F)cc1)c1ccc2ccccc2n1 | -8.34 |
| O=C(O)CCC(=O)Nc1ccc(F)cc1 | 12.7 |
| CCn1c(SCC(=O)Nc2nc3ccc(OC)cc3s2)nnc1-c1ccoc1C | -32.3 |
| COc1cc(/C=N/NC(=O)c2c(C)nnn2-c2nonc2N)ccc1O | -39.3 |
| Cc1ccc(NC(=O)COC(=O)c2ccc([N+](=O)[O-])o2)cc1S(=O)(=O)N1CCCCCC1 | -33.7 |
| CNC(=O)CNC(=O)Nc1ccc(C)cc1 | 17.9 |
| COc1ccccc1C1CCN(c2cc(O)ccc2[N+](=O)[O-])CC1 | 4.65 |
| O=C(Nc1ccc(O)cc1)C1CCCO1 (stereo not shown) | 16.4 |

| Structure (SMILES) | hERG current change (%, negative = inhibition) at 10uM [%] |
| --- | --- |
| CCNC(=S)NNC(=O)c1cc(C)nc2ccccc12 | -14.1 |
| CC(C)CCNC(=O)C1CCN(S(=O)(=O)c2ccc3nc4c(c(C(=O)O)c3c2)CCCCC4)CC1 | 31.8 |
| O=C(CSc1cccc(C(F)(F)F)c1)NC(=O)NCc1ccco1 | -3.66 |
| O=C(COC(=O)c1cccc(O)c1)NCc1ccc2c(c1)OCO2 | -5.22 |
| O=C(CN(Cc1cccs1)C(=O)CNS(=O)(=O)c1ccc(F)cc1)NCc1ccco1 | -26.4 |
| O=C(NCCC1=CCCCC1)C1CCN(S(=O)(=O)c2cccc3cccnc23)CC1 | -20.1 |
| Cl.O=C(O)c1ccc(Nc2nc(-c3cccnc3)nc3ccccc23)cc1 | 5.35 |
| CC1CCCN(CC(=O)NC(=O)NC2CCCCC2)C1 (stereo not shown) | 4.65 |
| CC(=O)Nc1ccc(NS(=O)(=O)c2ccc(Cl)s2)cc1 | -5.65 |
| CCCCCCC(=O)Nc1nc(C)c(-c2csc(Nc3cc(Cl)ccc3C)n2)s1 | 13.5 |
| O=S(=O)(c1cc(Cl)ccc1Cl)N1CC2CCCN2c2ccc(C(F)(F)F)cc21 (stereo not shown) | -9.61 |
| Cn1c(=O)c2c(nc(SCC(=O)NCC3CCCO3)n2C)n(C)c1=O (stereo not shown) | 2.28 |
| Cc1ccc(-c2csc(NC(=O)CCNC(=O)c3ccccc3Cl)n2)cc1 | 1.5 |
| CC(Nc1nc(N2CCN(S(C)(=O)=O)CC2)nc2ccccc12)c1ccccc1 (stereo not shown) | -60.9 |
| COCCn1nnnc1CN1CCC(O)(c2cccc(C(F)(F)F)c2)CC1.Cl | 2.65 |
| CC1CCN(C(C)C(=O)Nc2ccc(S(=O)(=O)N3CCCC3)cc2)CC1 (stereo not shown) | -6.3 |
| CCOC(=O)N1CCC(NC(=O)CSCc2nc(-c3ccc(OC)cc3)oc2C)CC1 | -6.28 |
| Cc1cc(C)nc(NC(=O)c2cc(Br)ccc2Cl)n1 | -3.72 |
| COc1ccccc1S(=O)(=O)Cc1ccc(C(=O)NC2CCCCCC2)o1 | -13.2 |
| CC(CCc1ccccc1)NC(=O)CCCn1ncn2c(cc3occc32)c1=O (stereo not shown) | -31.2 |
| O=C(CCOc1ccccc1)Nc1ccccc1F | 20.4 |
| CC1CC(C)CN(CCCNC(=O)c2ccc(CNS(=O)(=O)c3ccc(F)cc3)cc2)C1 (stereo not shown) | -32.3 |

| Structure (SMILES) | hERG current change (%, negative = inhibition) at 10uM [%] |
| --- | --- |
| N#CC(C#N)=C1NC2(CCCC2)Cc2ccccc21 | 6.42 |
| CCc1n[nH]c2c1C(=O)CC(C)(C)C2 | 17.4 |
| O=C(COc1ccc(F)cc1Cl)Nc1ccc(N2CCOCC2)cc1N1CCOCC1 | -10.2 |
| O=C(COC(=O)CNC(=O)c1cccc([N+](=O)[O-])c1)Nc1ccccc1OC(F)F | -29.3 |
| COc1ccc(OCCCC(=O)NCc2ccco2)cc1 | -7.09 |
| O=C(N[C@H]1CCCCNC1=O)c1cc(COc2ccc(F)cc2F)on1 | 10.2 |
| Cc1nc(SCC(=O)Nc2cc(C)on2)c2c3c(sc2n1)CCCC3 | 0.497 |
| COc1ccccc1N1CCN(CC(=O)NCc2ccc(Cl)cc2)CC1 | -0.607 |
| O=C(O)/C(=C\c1cccc(F)c1)c1ccc(S(=O)(=O)N2CCCC2)s1 | 3.55 |
| O=C(NCCc1ccccc1)c1cnc2n(c1=O)CCS2 | 15.7 |
| CCN(Cc1cc2ccccc2[nH]c1=O)S(=O)(=O)c1ccc(OC)cc1 | -0.598 |
| O=C1CCCC(O)=C1C=NCc1ccccc1 | 23.6 |
| O=C(COC(=O)c1ccc2c(c1)OCCO2)NC1CCCCC1 | 2.37 |
| CC(=O)Nc1ccc(Nc2nc(C)c([N+](=O)[O-])c(Nc3ccccc3)n2)cc1 | -0.794 |
| CSCC[C@@H](C(=O)NCc1cccs1)N1Cc2ccccc2C1=O | 1.01 |
| CC1(C)C(c2cccs2)=[N+]([O-])C2(CCCCC/C2=N\O)N1O (stereo not shown) | 18.5 |
| O=C(CCc1nnc(COc2ccccc2)o1)NCc1ccccc1 | 9.88 |
| CCn1c(NCc2ccc(N(C)C)cc2)nc2ccccc21 | -41.2 |
| O=C(NCc1ccncc1)/C(=C/c1cccc([N+](=O)[O-])c1)NC(=O)c1ccccc1 | -71 |
| Cc1cccc(/C=N/NC(=O)c2cc(Br)ccc2OCc2ccccc2)n1 | -0.685 |
| Cc1nc(CSc2nnc(Nc3cccc(C)c3C)s2)cs1 | -5.24 |
| COc1ccccc1NS(=O)(=O)c1cc(C(=O)NCCC(C)C)ccc1F | -15.6 |
